# Data published in publication PMC12136788.
# Some of the results follow.
# B1: chr1:235113809:235113910:-|CDS|ENSG00000173726|msi1_unk|total|mutant (ssRNA)
# RNA: GGGAGUUCUACAGUCCGACGAUCAGGCUUUUCAGGUUACAUGUAAUUUUAUGUAAAUCUUACAGGUGAAUAUGAGAAGGGCGCCGACCAUCUGACAAAUGCAAUUGCUGUGUGUGGACAGCCACAGCAGUUACUGCAGGUCUUCAACAGAGGAUUGAGCAUCA
# B2: chr17:73284618:73284719:-|3pUTR|ENSG00000179604|msi1|total|mutant (ssRNA)
# RNA: GGGAGUUCUACAGUCCGACGAUCGGGCACUCGCUCAGUCCCCCGGGGCUUGUUUGUUCUUUAUUAUUGUGUUUAAAUCCUUACCGAGCAAUAUCAGGAUGGUGUUAACCGGUCUGCCUCAGAAUGAGAAUCAAUCCUUUCCGACAACAGAGGAUUGAGCAUCA
# B3: chr20:62294722:62294823:+|3pUTR|ENSG00000130703|unk|FALSE|unique (ssRNA)
# RNA: GGGAGUUCUACAGUCCGACGAUCCGCACACCGCGUCCGUGUCUCCAGGGGGUUCCUUUCUUCUCACACGUCGCGUGUACCCAUAGCACUCUUGUGUUUCUGUUUUUCCCAGUAUGCAUGUUUAAAAUAGAAGUGACAAGAAUCCAACAGAGGAUUGAGCAUCA
# B4: chr4:38700566:38700667:+|3pUTR|ENSG00000109787|unk|total|mutant (ssRNA)
# RNA: GGGAGUUCUACAGUCCGACGAUCUACAAAGCCAUCUUUACAUGCAUUAAACGAGGGCUACAACAAUAUUGUUUUACAAAUACCCGCACUUUUUUUUCUGUUAUGUACUCCGUGUCCGAGGGUCAAAAUAAUCUUUCUGCUCCGCAACAGAGGAUUGAGCAUCA
# B5: chr6:157944353:157944454:+|3pUTR|ENSG00000130340|unk|total|mutant (ssRNA)
# RNA: GGGAGUUCUACAGUCCGACGAUCAGUAAUUCUCCCCACUUGAUUUUUCUUCUAUAAAAUCCCACCGAACAAUGUUUAUGCUACCGCCAUUUAAUAUAUGUACAAAUUGUAAAGAAUAUGUAUAAAUGUUUUACACGAAUGUAACAACAGAGGAUUGAGCAUCA
# B6: chr8:65724783:65724899:-|CDS|ENSG00000205268|unk|total|mutant (ssRNA)
# RNA: GGGAGUUCUACAGUCCGACGAUCACCGGUGCUCUGAUACCCGCCACAGACAUCAGUCGCCAGAAUGAGUAUCUGUCUUUGUUCCGGUCCCAUUUGGACCGAGGUGAUUUAUGCCCCGAAGACACCAGACACAGACAUUUGGUUCAACAGAGGAUUGAGCAUCA
# B7: chr2:128192346:128192447:+|3pUTR|ENSG00000136731|msi1|FALSE|unique (ssRNA)
# RNA: GGGAGUUCUACAGUCCGACGAUCAGAAAAUGAUGUUACCACUAAAAUAUUUUCUCCAAGAAGGCAUACUGUAACAGAAAAGAUAGGUAAGAUAUUUUUUUCCCAAGAAGUAAGAAUUGAUUGUGCUGAAUGUUCAAACUCUGGCAACAGAGGAUUGAGCAUCA
# B8: chr19:21059139:21059240:+|3pUTR|ENSG00000118620|unk|total|mutant (ssRNA)
# RNA: GGGAGUUCUACAGUCCGACGAUCGUAAAAAUGAAAAUAUUUAAUCCAAAAUUAAGUCUAUGUAAAUAUCAGAGAAUUUACUGCCGAAAUAUAUAAGGCACUGAGACUUCAGAUAUUAUACUAAAUCAGAGUGCUGAGUACCGACAACAGAGGAUUGAGCAUCA
# B9: chr7:20410991:20411126:+|3pUTR|ENSG00000105855|msi1|total|mutant (ssRNA)
# RNA: GGGAGUUCUACAGUCCGACGAUCAAAUUCUGCCUCAAGCAAAGUACCACAUUUUGAAUGUUUUCUCCGAUUUUGAUUGCAAGCCGAUAUCAGCAUUUUUUAAAUGAAAAGCUAUAUUAUCUUCUCCCUUCAAGGCAGCCUAAGCAACAGAGGAUUGAGCAUCA
# B10: chr17:74695098:74695251:-|CDS|ENSG00000186074|control|control|control (ssRNA)
# RNA: GGGAGUUCUACAGUCCGACGAUCUCUCUGACCUUGGGUGCUGAGGAUCAGGAACCGACCUACUGCAACAUGGGCCACCUCAGUAGCCACCUCCCCGGCAGGGGCCCUGAGGAGCCCACGGAAUACAGCACCAUCAGCAGGCCUCAACAGAGGAUUGAGCAUCA
# B11: chr12:6238111:6238124:+|3pUTR|ENSG00000010278|msi1_unk|FALSE|overlapping (ssRNA)
# RNA: GGGAGUUCUACAGUCCGACGAUCUGUUUGUUUUUGCUUGUUAUAUUAAGCAGAAAUCCUGCAAUGAAAGGUACUAUAUUUGCUAGACUCUAGACAAGAUAUUGUACAUAAAAGAAUUUUUUUGUCUUUAAAUAGAUACAAAUGCAACAGAGGAUUGAGCAUCA
# B12: chr1:89933607:89933717:+|CDS|ENSG00000171492|unk|FALSE|bound_elsewhere (ssRNA)
# RNA: GGGAGUUCUACAGUCCGACGAUCCAACUUUUGGUUCAAAUAUCCCAAAACAUGCUCAAAAGUAGAACAUUUUGUUUCAAUAUUAGGAAAGUGCUUUGAAUCCCCUUGGACGACAAAAGCGUUGUCUGAGACAGCAUGCGAAGACAACAGAGGAUUGAGCAUCA
# B13: chr3:41225653:41225883:+|CDS|ENSG00000168036|unk|total|mutant (ssRNA)
# RNA: GGGAGUUCUACAGUCCGACGAUCCAUUACAACUCUCCACAACCUUUUAUUACAUCAAGAAGGAGCUAAAAUGGCAGUGCGUUCCGCUGGUGGGCUGCAGAAAAUGGUUGCCUUGCUCAACAAAACAAAUGUUAAAUUCUUGGCCAACAGAGGAUUGAGCAUCA
# B14: chr8:28970260:28970371:+|CDS|ENSG00000147421|unk|FALSE|unique (ssRNA)
# RNA: GGGAGUUCUACAGUCCGACGAUCUCUUCCUCUACAGCUACAGCUUCCACACAGACGCAGCAUUCGGGAAUGUCCCCGUCACCUAGCAACAGUUAUGAUACUUCCCCACAGCCUUGCACUACCAAUCAAAAUGGGAGGGAGAAUCAACAGAGGAUUGAGCAUCA
# B15: chr8:42175261:42175472:-|3pUTR|ENSG00000104368|msi1|total|mutant (ssRNA)
# RNA: GGGAGUUCUACAGUCCGACGAUCGUAUUCCUUUUGUGUACAGUGUGUAAAGUGUAAAUCCUUUUUCUUUAUAAACUUCCGAGCCGCAUGAGAGAAUUGUAUCAUUUGAACAACCCGGCUUCAGCAUAUUUACCGCAAUCCAUGCAACAGAGGAUUGAGCAUCA
# B16: ENSG00000114062:stop:overlap|stop_codon|ENSG00000114062|stop_codon|NA|stop_codon (ssRNA)
# RNA: GGGAGUUCUACAGUCCGACGAUCUGGGAGGACUAGGAAAAUUAAAGAUGAUUAUAGCCAAAAAUGGCCCAGACACAGAAAGGUAGGUAAUUAUUAACUUGUGACUGUAUACCUACCGAAAACCUUGCAUUCCUCGUCACAUACCAACAGAGGAUUGAGCAUCA
# B17: chr1:9729132:9729211:-|3pUTR|ENSG00000171603|msi1_unk|FALSE|overlapping (ssRNA)
# RNA: GGGAGUUCUACAGUCCGACGAUCUAGUUCUGAGGACACUGGUGGCUGUGCUAUGUGUGGCCAUCCUCCAUGUCCCGUCCCUGUAGCUGCUCUGUUUAGACAGCGGACAGACGCUCACGCCCAGGGGAUGUCCUCACGCUGUCGCAACAGAGGAUUGAGCAUCA
# B18: ENSG00000100034:stop:overlap|stop_codon|ENSG00000100034|stop_codon|NA|stop_codon (ssRNA)
# RNA: GGGAGUUCUACAGUCCGACGAUCGGAGGCAGGACUUGCCCUCCAGCCUUCCAGAACCUGAGACCCAGGCUCCACCAAGAAGCUAGGUGGUUUCCAGGCCCCUGCCCUCCCCUUCCUCCCAUCCUUGUCCUUCUCUCCCUCAGACAACAGAGGAUUGAGCAUCA
# B19: chr11:111494814:111495134:-|three_prime_utr|ENSG00000137707|control|control|control (ssRNA)
# RNA: GGGAGUUCUACAGUCCGACGAUCUCUCUAAAAUAAAAAUGAAUUUAAGGUUGAGAGGCCCAUGAAACAAAAAAUGACCAUAUUAGGGACUAGGGUACACAAUGGUAAAUCCUCUCAUACAGAUCAUCACUGUUCUUAGCUGUACAACAGAGGAUUGAGCAUCA
# B20: chr3:194587672:194588620:-|three_prime_utr|ENSG00000145014|control|control|control (ssRNA)
# RNA: GGGAGUUCUACAGUCCGACGAUCAAGCUGCCCUGGCAAGUGAGGAACCAGGAGCCGUCACUGAGUGUGGCUGGGCUACAUCAUAGCUCAUCACGGAGCUACGACUUUGGGUACUGCGGACAGACCUGGAUAGGCCCAGCAUUCCAACAGAGGAUUGAGCAUCA
# B21: chr1:225419324:225419425:-|CDS|ENSG00000143815|msi1|FALSE|unique (ssRNA)
# RNA: GGGAGUUCUACAGUCCGACGAUCUUACAUAGCAACACAGUAUAGCCUUCGUCCAAGAAGAGAAGAAGUCAAAUUAAAAGAAAUAGAUUCUAAGGAAGAAAAAUACGUUGCAAAAGAACUGGCAGUGAGAACCUUUGAAGUGACCAACAGAGGAUUGAGCAUCA
# B22: chr10:99876058:99876159:-|3pUTR|ENSG00000107554|msi1|FALSE|bound_elsewhere (ssRNA)
# RNA: GGGAGUUCUACAGUCCGACGAUCUUGAGCCUAAUGGAAGACUGGAUGUCUUUCUUCUUCAUCCAAGCACCCUAAUGACUGUUUAGUUACAUCCAUAGAUGCAGACAACAUAACACCUGUGACUUACUUGAAUUGGGAUAAGCCCAACAGAGGAUUGAGCAUCA
# Biological target: T1, UNK ZnF1-6 (called full-length) (human, UniProt Q9C0B0 30-357)
# T1 sequence: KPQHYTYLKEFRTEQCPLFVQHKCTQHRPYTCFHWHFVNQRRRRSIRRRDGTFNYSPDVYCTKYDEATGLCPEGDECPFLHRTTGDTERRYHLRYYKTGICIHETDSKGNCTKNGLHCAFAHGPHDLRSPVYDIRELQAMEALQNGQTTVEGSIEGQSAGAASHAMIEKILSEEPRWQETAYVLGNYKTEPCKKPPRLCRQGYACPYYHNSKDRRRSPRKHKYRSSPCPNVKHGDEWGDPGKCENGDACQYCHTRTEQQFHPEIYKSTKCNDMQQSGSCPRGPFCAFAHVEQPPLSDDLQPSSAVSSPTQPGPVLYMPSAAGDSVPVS
# Assay: nsRBNS (natural sequence RNA bind-n-seq); RBNS binding buffer (assumed for nsRBNS): 25 mM Tris pH 7.5, 150 mM KCl, 3 mM MgCl2, 0.01% Triton X-100, 500 ug/ml BSA, 20 U/ml SUPERase-In, 4 C; UNK is unkempt and MSI1 is Musashi-1; names of the RNAs are library labels; protein concentration not given here; high values mean tight binding
row,Binder,binding signal [enrichment R]
1,B1,0.355
2,B2,0.674
3,B3,0.624
4,B4,0.49
5,B5,0.493
6,B6,0.452
7,B7,0.563
8,B8,0.9
9,B9,0.367
10,B10,0.585
11,B11,0.632
12,B12,0.843
13,B13,0.601
14,B14,0.928
15,B15,0.316
16,B16,0.642
17,B17,0.611
18,B18,1.37
19,B19,0.545
20,B20,0.841
21,B21,0.538
22,B22,0.493
